Results taken from the supplement of paper PMC10126150.
Sequences with one replicate were seen in a single cluster, so their values are uncertain.

System: ATP
Test: switch fluorescence ratio, 500 uM ATP over buffer (Cy3 cluster intensity, sum of 5 cycles each) (fold (ratio)); higher = stronger signal-on switching upon ATP binding; sequences stand for … in TCGTCGGCAGCGTCAGATGTGTATAAGAGACAGTTTTTTTTTTTTTTTTTTTTTTTTT…TC
Conditions: aptamer strand: ATP DNA aptamer (quencher-CACCTGGGGGAGTATTGCGGAGGAAGG + anchor), 100 nM annealed; ATP concentration: 500 uM; one replicate
How it was run: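 Per cluster, summed Cy3 intensity from the target cycles was divided by that from the buffer cycles to give the fluorescence ratio, then averaged per switch-domain sequence. Clusters outside 100-1000 RFU were excluded. The Cy3-labelled switching-strand clusters, on a modified Illumina MiSeq flow-cell, were annealed to 100 nM quencher-labelled ATP aptamer and imaged in selection buffer, then after 15 min with 500 uM ATP at 22 °C, for five cycles with NaOH stripping and re-annealing between them.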
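Note: ATP exposure 15 min at 22 °C before imaging.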

CTGGGCGATG
switch fluorescence ratio: 0.977

TCCAAGATCC
switch fluorescence ratio: 1.07

GCGAAAGTAG
switch fluorescence ratio: 1.01

GAGAATGGAG
switch fluorescence ratio: 0.997

CGCTGATCAG
switch fluorescence ratio: 1.01

GCGATGAATA
switch fluorescence ratio: 0.973

TGGGGTGAGT
switch fluorescence ratio: 1.02

GAATGGTATC
switch fluorescence ratio: 1.01

TTTGAACGGA
switch fluorescence ratio: 1.02

TCACCGTACG
switch fluorescence ratio: 1.58

GTACTTCTTC
switch fluorescence ratio: 1.08

GTAAGACGGG
switch fluorescence ratio: 0.963

GCGGCCATTT
switch fluorescence ratio: 1.02

CGCTGTGTTG
switch fluorescence ratio: 1.07

GACTGGAGTC
switch fluorescence ratio: 1

TTTTTAAAT
switch fluorescence ratio: 1.02

CTAAACGAAC
switch fluorescence ratio: 1.23

GCATTTCGGG
switch fluorescence ratio: 0.977

TAGTCGAAAC
switch fluorescence ratio: 1

AGACAAAGGG
switch fluorescence ratio: 1.02

GGGGTAATAC
switch fluorescence ratio: 2.51

TGGAATTGCA
switch fluorescence ratio: 1

TATACCACCT
switch fluorescence ratio: 1.28

CCGTCGCTAA
switch fluorescence ratio: 5.03

AATACAGGTA
switch fluorescence ratio: 0.992

CTTGTTCGCA
switch fluorescence ratio: 1.12

GTTGTAAGTA
switch fluorescence ratio: 0.991

GGTATGGCTC
switch fluorescence ratio: 0.956

TCACTGTAAC
switch fluorescence ratio: 1.23

CGGGACCGTT
switch fluorescence ratio: 0.992

TGATTTCGGC
switch fluorescence ratio: 0.962

ACGGGTTTCA
switch fluorescence ratio: 1.01

ACGAACTTCT
switch fluorescence ratio: 1.27

TCCAACGCTT
switch fluorescence ratio: 4.29

GATCGCTAAT
switch fluorescence ratio: 1.42

CCTTGTTTTG
switch fluorescence ratio: 0.95

GACCTAGTCC
switch fluorescence ratio: 1.07

TAGTTTCGCC
switch fluorescence ratio: 0.992

AGCCGGCCGC
switch fluorescence ratio: 0.983

AGCGTGGGTA
switch fluorescence ratio: 1.02

GTGCGGTCGG
switch fluorescence ratio: 0.978

ATGTAAAGCC
switch fluorescence ratio: 0.987

GTAGGTTTTC
switch fluorescence ratio: 0.995

CTGTGACGGG
switch fluorescence ratio: 0.988

TAATAACTTG
switch fluorescence ratio: 1

ATTTACCGGC
switch fluorescence ratio: 0.979

AGCACTAAGA
switch fluorescence ratio: 1.02

TTGAAGCAT
switch fluorescence ratio: 0.959

CGATATCGGA
switch fluorescence ratio: 0.999

TGTCTGTCGA
switch fluorescence ratio: 0.987

TCGCTCGGGA
switch fluorescence ratio: 1.03

TTTTGGCACC
switch fluorescence ratio: 0.989

GAACCTCAAG
switch fluorescence ratio: 1.06

GCGATACAAG
switch fluorescence ratio: 1.16

CATTGCGTGC
switch fluorescence ratio: 1.07

AAGTCGACT
switch fluorescence ratio: 1.02

AGTTCGACTT
switch fluorescence ratio: 0.956

CTGAGGTATC
switch fluorescence ratio: 1.02

AGCCATGTGC
switch fluorescence ratio: 0.993

GCTTGGGTG
switch fluorescence ratio: 1.12

TTCTTGAGAG
switch fluorescence ratio: 0.963

TCATAGGTAT
switch fluorescence ratio: 0.973

AGGTGCAGCG
switch fluorescence ratio: 0.954

CGTGTTATGA
switch fluorescence ratio: 0.995

TAATATTCTC
switch fluorescence ratio: 1.04

ATGCGCGTCC
switch fluorescence ratio: 1.06

CGGGCCAGCT
switch fluorescence ratio: 1.05

AGCGGAAACC
switch fluorescence ratio: 1.1

CGTGAAAAGG
switch fluorescence ratio: 1.02

TTTACGCGCG
switch fluorescence ratio: 1.01

CGAGGTTGAG
switch fluorescence ratio: 0.988

TGATGCTACT
switch fluorescence ratio: 1.06

GCGTTTTGAT
switch fluorescence ratio: 0.978

AATCGAAACC
switch fluorescence ratio: 1.1

AAACGAGTCG
switch fluorescence ratio: 0.989

TTCAACACAT
switch fluorescence ratio: 0.976

CATCAATAGG
switch fluorescence ratio: 1.03

GAGCAATGGG
switch fluorescence ratio: 1.4

CATGTTCGTA
switch fluorescence ratio: 1.01

TGAAAGTGTG
switch fluorescence ratio: 0.964

GTGGGGCGCT
switch fluorescence ratio: 0.971

GTGTGCGCTT
switch fluorescence ratio: 1

CAGGGCGTCG
switch fluorescence ratio: 0.997

CCAGTGTTAT
switch fluorescence ratio: 1.06

AAATTATCAC
switch fluorescence ratio: 1.03

AGACAGTGGT
switch fluorescence ratio: 1

GTAAAATACT
switch fluorescence ratio: 1.03

TGCACAGATA
switch fluorescence ratio: 0.958

CGAGTAGGTA
switch fluorescence ratio: 0.949

CCTTTGTCGG
switch fluorescence ratio: 1.08

TGAGGACTTG
switch fluorescence ratio: 0.964

TGTTTCCTTG
switch fluorescence ratio: 1.01

ACGTCACTTT
switch fluorescence ratio: 1.52

CAGAGTACTC
switch fluorescence ratio: 1

TCGAGATACC
switch fluorescence ratio: 1.09

TGACTTATAT
switch fluorescence ratio: 1.06

GGCCGAACCT
switch fluorescence ratio: 1.25

GTCGTCAAGG
switch fluorescence ratio: 0.949

TGGTCGGCCT
switch fluorescence ratio: 0.968

TCGGGTATG
switch fluorescence ratio: 1.09
